From the supplement of paper PMC12217912
The list shows a part of the results. Sequences were assembled here from the parent chain. Inactive controls read about 0.05.

B1: TEV protease; numbered along this chain (parent)
chain: MGESLFKGPRDYNPISSSICHLTNESDGHTTSLYGIGFGPFIITNKHLFRRNNGTLVVQSLHGVFKVKDTTTLQQHLVDGRDMIIIRMPKDFPPFPQKLKFREPQREERICLVTTNFQTKSMSSMVSDTSCTFPSGDGIFWKHWIQTKDGQCGSPLVSTRDGFIVGIHSASNFTNTNNYFTSVPKNFMELLTNQEAQQWVSGWRLNADSVLWGGHKVFMVKPEEPFQPVKEATQL

Variants of: B1
Assay: raw area under fraction-flipped curve 0-4 h after induction (AUC4h, not background-subtracted), DNA-recorder readout of cleavage of the substrate (dimensionless); higher = more cleavage of the substrate by the protease variant
Details: temperature: 34 °C; time window: 0-4 h after rhamnose induction
Protocol: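 In vivo DNA recorder in E. coli TOP10(DE3) ΔrhaA at 34 °C. Each TEVp single-site mutant (parent TEVp 0) is paired with a single-site variant of the 7-mer TEVs (canonical ENLYFQ|S). The substrate sits between flexible linkers in a Bxb1-sfGFP-TEVs-SsrA fusion, so cleavage stabilises Bxb1 and speeds flipping of a recombination array, read by NGS. The value is the raw area under the fraction-flipped curve over 0-4 h after rhamnose induction (AUC4h), with ≥20 reads per time point. It is not background-subtracted; inactive controls average about 0.047.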
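Also: Bxb1 expression induced with 0.2% (w/v) L-rhamnose at OD600 near 0.5, cultures sampled hourly, flipped fraction per protease–substrate barcode pair counted by paired-end Illumina sequencing.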

Variant | area with substrate ENLYFQA | area with substrate ENLYFQC | area with substrate ENLYFQD | area with substrate ENLYFQI | area with substrate ENLYFQK | area with substrate ENLYFQS | area with substrate ENLYFQL | area with substrate ENLYFQM | area with substrate ENLYFQN | area with substrate ENLYFQR | area with substrate ENLYFQT | area with substrate ENLYFQV | area with substrate ENLYFQY | area with substrate ENLYFQG | area with substrate ENLYFQW | area with substrate ENLYFQH | area with substrate ENLYFQP | area with substrate ENLYFQE | area with substrate ENLYFQF | area with substrate ENLYFQQ
F92H | 0.117 | 0.109 | 0.0697 | 0.0531 | 0.0605 | 0.104 | – | – | – | – | – | – | – | – | – | – | – | – | – | –
D91P | 0.0931 | 0.0979 | 0.0734 | – | – | 0.113 | 0.0511 | 0.0942 | 0.065 | 0.066 | 0.082 | 0.0306 | 0.0961 | – | – | – | – | – | – | –
D91H | 0.102 | 0.0857 | 0.0624 | 0.0652 | 0.0662 | 0.103 | 0.0506 | 0.0661 | – | – | 0.0501 | 0.0618 | 0.0803 | 0.0613 | 0.0432 | – | – | – | – | –
Q105C | 0.0786 | 0.117 | – | 0.0594 | – | 0.105 | 0.0601 | – | 0.0718 | 0.0617 | 0.0582 | – | 0.0756 | 0.0986 | – | 0.1 | 0.0657 | – | – | –
Q105M | 0.0951 | 0.0963 | 0.0843 | 0.0571 | 0.0696 | 0.104 | 0.0608 | 0.0937 | 0.137 | 0.0648 | 0.0675 | – | 0.0721 | 0.111 | 0.0694 | 0.078 | 0.0618 | 0.0543 | – | –
E108T | 0.0736 | 0.0626 | 0.0487 | 0.0533 | 0.0255 | 0.0724 | 0.0479 | 0.0727 | 0.0593 | 0.0418 | 0.0493 | 0.0438 | – | 0.0512 | 0.0603 | 0.0674 | – | – | 0.0569 | 0.0496
T70S | 0.0996 | 0.114 | 0.0897 | – | 0.0824 | 0.0985 | 0.0597 | 0.0973 | 0.0676 | 0.0468 | 0.0629 | 0.0729 | – | – | – | – | 0.0631 | – | 0.0984 | –
D69W | 0.0846 | 0.0822 | 0.0609 | 0.0497 | 0.0361 | 0.0803 | 0.0665 | 0.0652 | 0.0707 | 0.0578 | 0.0716 | 0.0548 | – | – | 0.0691 | 0.0786 | – | – | – | –
H62V | 0.0982 | 0.0957 | – | 0.0454 | – | 0.0952 | 0.0745 | – | 0.065 | 0.0562 | 0.0606 | 0.056 | 0.0709 | – | 0.0722 | 0.0717 | – | – | – | –
K100E | 0.104 | – | – | 0.0586 | 0.0565 | 0.107 | 0.0614 | 0.071 | 0.0852 | – | 0.0443 | 0.0673 | – | 0.0887 | – | – | 0.0668 | – | – | 0.0721
K100R | 0.0939 | – | – | – | – | 0.11 | 0.0507 | 0.0814 | 0.0801 | 0.0657 | 0.062 | – | 0.105 | 0.102 | 0.0694 | – | – | 0.066 | 0.101 | 0.0846
K100L | 0.119 | 0.117 | – | – | 0.0651 | 0.102 | 0.0672 | 0.123 | 0.0713 | – | 0.0577 | – | 0.0605 | – | 0.0633 | – | 0.0648 | – | – | 0.0941
K100V | 0.0947 | 0.106 | – | 0.057 | – | 0.101 | 0.0454 | 0.0826 | 0.0736 | 0.0637 | 0.06 | 0.0633 | – | 0.0816 | – | 0.0539 | 0.0642 | – | – | –
C111T | 0.101 | 0.0896 | 0.0732 | 0.0683 | – | 0.107 | – | – | 0.0792 | 0.0617 | 0.0638 | – | 0.0776 | – | 0.0335 | 0.0895 | 0.0601 | 0.0642 | 0.101 | –
C111Y | 0.137 | 0.107 | – | – | 0.0732 | 0.106 | – | 0.0991 | 0.0721 | 0.0575 | 0.0995 | 0.0666 | – | 0.0628 | 0.0588 | 0.094 | 0.0693 | 0.0569 | 0.0843 | 0.0638
S124W | 0.0865 | – | – | 0.0572 | 0.0598 | 0.105 | 0.0758 | 0.118 | 0.0766 | 0.0883 | 0.0615 | 0.0502 | 0.0713 | 0.0992 | – | – | 0.0533 | – | 0.0867 | –
K66P | 0.0936 | 0.0739 | 0.0533 | 0.0723 | – | 0.0909 | 0.0679 | 0.0713 | 0.0708 | 0.0585 | – | 0.0675 | 0.071 | 0.0932 | 0.0575 | 0.049 | – | 0.0734 | – | –
I84W | 0.0466 | 0.0544 | – | 0.0564 | 0.0617 | 0.05 | 0.057 | 0.0571 | 0.0539 | 0.0589 | 0.039 | 0.0486 | 0.0417 | 0.0613 | – | – | – | – | – | –
V113P | 0.0844 | 0.077 | – | 0.068 | – | 0.072 | 0.0509 | 0.0704 | 0.065 | 0.067 | – | 0.0516 | – | 0.0743 | 0.0633 | 0.0613 | – | – | 0.0636 | 0.0655
E107W | 0.0832 | 0.0754 | 0.0644 | – | – | 0.0951 | 0.0626 | 0.0808 | – | – | – | 0.0751 | – | – | 0.0662 | – | – | – | 0.0782 | –
E107A | 0.0789 | 0.0817 | 0.0444 | 0.0488 | 0.0664 | 0.102 | 0.0665 | 0.0861 | – | 0.0612 | 0.0687 | 0.0646 | – | 0.122 | – | – | – | – | – | –
P94I | 0.0567 | 0.106 | – | 0.0547 | 0.0616 | 0.0926 | 0.06 | – | 0.0773 | 0.0593 | 0.0652 | – | 0.0602 | – | – | 0.0776 | – | – | – | 0.0274
P94G | 0.148 | 0.112 | – | 0.0634 | 0.066 | 0.117 | 0.0623 | 0.0922 | 0.0862 | 0.061 | 0.0667 | 0.0591 | 0.0868 | 0.124 | 0.0818 | – | 0.0658 | – | – | 0.0867
M83W | 0.0587 | – | – | 0.0592 | 0.0586 | 0.0633 | 0.0609 | 0.065 | – | 0.0717 | 0.0603 | 0.0629 | 0.0655 | 0.0571 | 0.0742 | 0.0519 | 0.0698 | – | 0.0373 | –
S123A | 0.0984 | 0.151 | 0.0786 | 0.0641 | 0.0529 | 0.105 | 0.0655 | – | – | 0.0598 | 0.0739 | 0.101 | 0.0806 | – | – | – | 0.0499 | – | – | 0.0887
S123K | 0.0691 | 0.145 | – | 0.0632 | 0.0613 | 0.115 | – | 0.114 | – | 0.0518 | 0.0716 | 0.0811 | 0.0857 | 0.111 | 0.0425 | 0.0828 | 0.0602 | – | 0.062 | –
